From the supplement of paper PMC3334620
In all, about 33,000 sequences were measured (“E-score (-0.5 to 0.5)”: median about -0.012, highest 2% from about 0.29 on). The list shows a part of the results.

target: T1, Ybr033w (UniProt P38073); assay: PBM E-score (8-mer binding enrichment) (E-score (-0.5 to 0.5)); higher = stronger / more preferred TF binding; most listed sequences are background and not binding sites; settings: protein concentration: 200 nM; construct: GST-full length
T1 sequence: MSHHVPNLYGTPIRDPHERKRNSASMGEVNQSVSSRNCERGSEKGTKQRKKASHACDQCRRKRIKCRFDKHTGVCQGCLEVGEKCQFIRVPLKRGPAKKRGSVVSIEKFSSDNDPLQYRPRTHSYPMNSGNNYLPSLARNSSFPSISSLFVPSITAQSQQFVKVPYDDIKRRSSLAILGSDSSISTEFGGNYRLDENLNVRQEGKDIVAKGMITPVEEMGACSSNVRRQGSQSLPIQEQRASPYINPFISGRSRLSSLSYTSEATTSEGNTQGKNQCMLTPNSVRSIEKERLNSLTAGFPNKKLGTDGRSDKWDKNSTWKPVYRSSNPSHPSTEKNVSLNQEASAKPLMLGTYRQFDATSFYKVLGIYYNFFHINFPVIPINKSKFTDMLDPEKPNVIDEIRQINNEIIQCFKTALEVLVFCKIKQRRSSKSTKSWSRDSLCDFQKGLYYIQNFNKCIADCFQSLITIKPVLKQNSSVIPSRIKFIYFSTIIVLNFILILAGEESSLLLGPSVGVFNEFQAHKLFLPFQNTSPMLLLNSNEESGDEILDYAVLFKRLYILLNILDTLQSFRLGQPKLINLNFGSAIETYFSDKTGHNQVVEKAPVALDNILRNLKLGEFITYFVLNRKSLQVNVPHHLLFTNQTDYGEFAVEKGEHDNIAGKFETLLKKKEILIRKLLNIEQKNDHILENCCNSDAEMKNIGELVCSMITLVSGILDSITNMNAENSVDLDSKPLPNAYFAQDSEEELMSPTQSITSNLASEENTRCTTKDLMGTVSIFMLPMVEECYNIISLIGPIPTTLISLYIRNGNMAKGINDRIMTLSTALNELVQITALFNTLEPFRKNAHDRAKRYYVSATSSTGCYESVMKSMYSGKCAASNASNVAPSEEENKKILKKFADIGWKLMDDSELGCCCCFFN
In short: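 For each ungapped eight-base word taken together with its reverse complement, the Universal PBM Analysis Suite assigned an E-score. Binding data came from GST-tagged yeast transcription factors, applied at about 100-200 nM, on universal all-10-mer Agilent arrays made double-stranded by primer extension. Fluorescent anti-GST marked bound protein, and scans were normalised with masliner.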

Sequence	PBM E-score
AATGTGCA	0.0839
GGAGTGCA	-0.0904
GTAAATAC	0.166
AGTGAGCG	0.0395
AAGCAAGC	0.0236
AAGTTTCC	0.186
TTGCGAAA	0.275
GAAAAGTA	0.171
AGCATGGG	-0.172
GAATGAGA	0.0873
AACAAATT	0.374
CTTTCTTC	0.0146
CGATGTAG	-0.106
GGAACATA	0.313
CTAACGGA	0.136
AGAAATAC	0.104
AGGATACG	-0.15
AGCTAGTA	0.17
CTTCAAAC	-0.136
GCGATGAA	-0.0988
AGCTAGCT	0.0325
AGTATTTA	0.301

Sequence	PBM E-score
CTGAAACA	0.145
ATGGTAGA	0.172
GAGGAGGC	-0.296
AACACGGT	0.07
CTTAAACC	0.119
GACAATCA	0.0041
CACGTGGC	-0.295
CCTGTTTA	-0.164
CGAGTAAG	0.226
GGCCCACA	-0.126
GGACCACC	0.029
CGATGAAC	-0.00159
ACAAGTGG	0.00473
AGGCGGTC	-0.231
CCTCGCGA	-0.164
ATCCGTAC	0.109
ACATGCAA	0.0151
ACCGAATC	-0.0298
ACAAGCGC	-0.145
CTGCCACC	-0.303
CGGCTCAG	-0.101
CATGATAA	0.152

Sequence	PBM E-score
TGTAGACA	0.149
ATCGTGTA	0.0262
CTCGGAAC	0.113
ACGCATAG	-0.00897
CTGTTCTA	-0.094
GCATGTCC	-0.206
ACGCATCT	0.00301
CAGTCGCA	-0.102
TATTACGA	0.297
CCTCGTTC	-0.0908
AATCCCAA	0.0668
ATCAAACA	0.227
ATATTGAT	0.39
CGGGGCCA	-0.159
CACACCTA	0.166
ACGCATAT	-0.0358
CAATTATG	0.08
ACTGGCAT	-0.0492
AGGTACTG	0.048
GGGACCAC	-0.201
AGCCGATG	-0.00654
AAATTAAC	0.251

Sequence	PBM E-score
ACGGAGAT	-0.0576
ATTAGACA	0.183
TTTCGAAA	0.227
GTCGCTAA	0.0848
ATATTATG	0.315
ATATGCAA	0.0194
AACTATTA	0.213
CTGGTCCC	-0.283
CCAACGAG	-0.303
ACTTAATG	0.151
AGCGTTCC	-0.00963
CTATTGAG	-0.0501
GATTAATC	0.435
CATCCTCG	0.0128
CCCGGGTC	-0.196
AGCGCGGC	-0.204
CGGGTAAA	0.208
CTACTCTA	0.212
ATTTGGTA	0.27
GATCTGAC	-0.16
CGATTAAA	0.174
ATTTTTGA	0.204

Sequence	PBM E-score
AAGTGGTA	0.0726
CCTCACCA	-0.0744
AAGAAATG	0.106
AGGGCTCG	-0.137
ACCGAGGG	-0.379
ACGGACAC	-0.119
CTCCTCGA	-0.126
CTTCGCGC	0.087
CAACACGG	-0.0425
CCAACTAC	0.08
TATTAATA	0.101
CCATCGAG	0.103
CCGCTCAG	-0.111
AAGATTCA	0.112
AAGACTAT	0.116
AAGGGACT	-0.0262
CAGCCTAA	-0.134
GACACAGA	-0.0692
GTCTCCAC	-0.0474
AAGGCAGA	-0.0306
CTCTGGTC	0.0477
